# The whole screen tested about 72,000 compounds, of which about 710 (0.99%) were called active. Inconclusive means that the source gave no clear call. Such entries were picked first, then a sample of the others. Calls come from the whole dose curve; as a rule, active = well fitted inhibition curve with a large enough effect; inconclusive = small, poorly fitted or top-dose-only effect; inactive = no such curve, though single readings can be large or run the other way. No potency is given beside an inconclusive call; the fits are too rough.
# Assay: qHTS Assay for Inhibitors of the ERK Signaling Pathway using a Homogeneous Screening Assay; note: nearly all actives have a fitted effect of over 55% in size
# Conditions: HEK293-V1b, vasopressin-stimulated pERK AlphaScreen; activity, negative = inhibition: at 57.5 µM (top of the series) unless noted
# Method in brief: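 qHTS, compounds titrated on V1b-expressing HEK293 cells. Preincubation 30 min at 37C, vasopressin 25 nM for 5 min, lysis 10 min, bead incubation 5 hr at room temperature.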
# % is set by controls: 0 for no effect and ±100 for the full control effect; potency is the fitted concentration of half-maximal effect; tags give direction and shape of the fitted curve.
SMILES,Potency,"activity, negative = inhibition"
COc1cc(OC)cc(C(=O)Nc2cc(NC(=O)c3ccco3)ccc2OC)c1,"inconclusive [inhibitor, partial curve]",
O=C(O)CCc1ccc(-c2ccc(Cl)cc2)n1Cc1ccco1,"inconclusive [inhibitor, partial curve]",
COC(=O)c1[nH]c2cc(C)ccc2c1NC(=O)CN1CCc2cc(OC)c(OC)cc2C1,"inconclusive [inhibitor, single point]",
COc1cc2c3cc1Oc1c(OC)c(OC)cc4c1[C@@H](Cc1ccc(O)c(c1)Oc1ccc(cc1)C[C@@H]3N(C)CC2)N(C)CC4,,inactive: -11.9%
COc1ccccc1-n1c(SCC(=O)N2CCCCC2)nc2cccnc21,"inconclusive [inhibitor, single point]",
CCCSc1nnc(Cn2c(=O)sc3ccccc32)n1-c1ccccc1,,inactive: 8.98%
FC(F)(F)c1ccccc1-c1ccc2ncnc(NCc3cccs3)c2c1,,inactive: -25.7%
COc1ccc(OC)c(Nc2nc(-c3ccc(O)c(O)c3)cs2)c1,"inconclusive [inhibitor, single point]",
COc1ccc(OC2C=CC(C#Cc3ccc(Br)cc3)OC2CO)c(C(C)(C)C)c1 (configuration not stated),"inconclusive [inhibitor, single point]",
O=C1c2cccc3cccc(c23)C(=O)N1c1cccnc1,"inconclusive [inhibitor, single point]",
CCOC(=O)c1nnn(-c2nonc2N)c1-c1ccc(OCC)cc1,"inconclusive [inhibitor, partial curve]",
Cn1c(SCc2nc3ccccc3s2)nnc1-c1cccs1,,inactive: -21.4%
N#CC1=C(N)NC(SCC(=O)Nc2ccccc2)=C(C#N)C12CCCC2,"inconclusive [inhibitor, partial curve]",
O=S(=O)(c1ccccc1)N1CCN(c2cc(-c3ccccc3)nc3ncnn23)CC1,"inconclusive [inhibitor, partial curve]",
CNc1ncnc2ccc(-c3ccccc3C#N)cc12,"inconclusive [inhibitor, full curve]",
CC(C)(C)c1cc(C(c2cccnc2)N2CCN(CCO)CC2)cc(C(C)(C)C)c1O (configuration not stated),"inconclusive [inhibitor, single point]",
CCCCNC(=O)CSc1nc2ccc(N3CCOCC3)cc2c(=O)n1CCc1ccccc1,,inactive: 16.9%
CCCCCn1c(SCCN2CCOCC2)nc2c1c(=O)[nH]c(=O)n2C,"inconclusive [inhibitor, partial curve]",
CCSc1nnc(NC(=O)c2cc(C)oc2C)s1,"inconclusive [inhibitor, single point]",
COc1ccc(-c2nc3cnc(N4CCNCC4)nc3n(CCC#N)c2=O)cc1,,inactive: 18.1%
CCOC(=O)OCC1OC(C#Cc2ccc(C(C)(C)C)cc2)C=CC1OC(=O)OCC (configuration not stated),,inactive: -8.39% [at 11.5 µM]
CCCNC(=O)c1c(N)n(-c2cc(OC)cc(OC)c2)c2nc3ccccc3nc12,"inconclusive [inhibitor, full curve]",
CC(O)COC(C)(C)C (configuration not stated),"inconclusive [inhibitor, single point]",

SMILES,Potency,"activity, negative = inhibition"
Cn1c(CN2CCCCC2)nc2cc(NC(=O)c3ccccc3)ccc21,"inconclusive [inhibitor, partial curve, poor fit]",
COCCNC(=O)CSc1nc(-c2ccc(OC)c(OC)c2)cc(C(F)(F)F)n1,"inconclusive [inhibitor, partial curve]",
CCOC(=O)CS(=O)(=O)c1nc(-c2ccc(F)cc2)cc(C(F)(F)F)n1,"inconclusive [inhibitor, partial curve, poor fit]",
CCCc1c(O)nc(SCc2ccccc2)[nH]c1=O,,inactive: -0.755%
Cc1ccc(C(=O)Nc2ccc(N3CCOCC3)cc2)cc1,"inconclusive [inhibitor, single point]",
Cc1cc2ncn(CCOc3ccccc3C#N)c2cc1C,"inconclusive [inhibitor, partial curve, poor fit]",
NCCOc1ccccc1-c1ccccc1,"inconclusive [inhibitor, single point]",
Nc1ccn([C@@H]2O[C@@H](CO)[C@@H](O)[C@H]2O)c(=O)n1,,inactive: -1.4%
Cc1cc(C)nc(/N=c2/ssnc2Cl)c1,"inconclusive [inhibitor, full curve]",
COc1ccc(CNc2nc(NCc3ccc(OC)cc3)n(S(C)(=O)=O)n2)cc1,"inconclusive [inhibitor, partial curve]",
Cc1ccc(Nc2cc(C)nn2-c2nc(C)cc(=O)[nH]2)cc1,"inconclusive [inhibitor, partial curve]",
COc1ccc(N2CCN(C(=O)c3cn(C)c(=O)c4c3c3ccccc3n4C)CC2)cc1,"inconclusive [inhibitor, full curve]",
O=C(CCN1CCc2ccccc2C1)c1ccc2c(c1)OCCO2,"inconclusive [inhibitor, full curve]",
COc1ccccc1N1CCN(c2nc(C)nc3c2oc2ccccc23)CC1,"inconclusive [inhibitor, partial curve]",
CCc1c2c(nc3cccc(SC)c13)COC2,"inconclusive [inhibitor, single point]",
Cn1c(N)c(S(=O)(=O)c2ccc(Br)cc2)c2nc3ccccc3nc21,"inconclusive [inhibitor, partial curve]",
COc1ccccc1-c1nc(-c2cccc(C)c2)no1,,inactive: 14.6%
Clc1ccc(-n2ncc3c(NCCN4CCOCC4)ncnc32)cc1,"inconclusive [inhibitor, partial curve]",
CC1(C)Cc2c(sc3nc(-c4cccs4)n(N)c(=O)c23)CO1,"inconclusive [inhibitor, single point]",
O=C(CSc1nccc(=O)[nH]1)Nc1ccc(Br)c(Cl)c1,"inconclusive [inhibitor, single point]",
CC(=O)[C@@]1(O)Cc2c(O)c3c(c(O)c2[C@H](O[C@H]2C[C@H](N)[C@H](O)[C@H](C)O2)C1)C(=O)c1ccccc1C3=O,"inconclusive [inhibitor, partial curve]",
O=c1c(-c2cccc(F)c2)nc2cncnc2n1Cc1ccccc1Cl,"inconclusive [inhibitor, partial curve]",
CCn1c(C)nc2cc(-c3nnc(-c4c(-c5ccccc5)noc4C)o3)ccc21,"inconclusive [inhibitor, partial curve]",

SMILES,Potency,"activity, negative = inhibition"
CC1(c2ccccn2)Nc2ccccc2-c2nc3ccccc3n21 (configuration not stated),,inactive: -1.46%
COC(=O)CNC(=O)C(C)NC(=O)OCc1ccccc1 (configuration not stated),"inconclusive [inhibitor, full curve, poor fit]",
Cc1nc(NCc2ccc3c(c2)OCO3)c2oc3ccccc3c2n1,"inconclusive [inhibitor, single point]",
CCc1nc2ccccc2c(C(=O)OCC(=O)NCc2ccco2)c1C,"inconclusive [inhibitor, partial curve, poor fit]",
COc1ccc(NC(=O)CSc2nnc(-c3cccs3)n2Cc2ccco2)cc1OC,"inconclusive [inhibitor, partial curve]",
O=C(Nc1ncc(Cc2ccccc2)s1)c1cccs1,,inactive: 35.9%
CCN(CC)c1nc(N)c2c(N)nc3c(c2c1C#N)CC(c1ccccc1)O3 (configuration not stated),"inconclusive [inhibitor, partial curve]",
O=C(COC(=O)c1cccc(S(=O)(=O)N2CCN(c3ccccc3)CC2)c1)NCc1ccco1,,inactive: 19.6%
Cc1cc(C)n(-c2nc(NCC(C)O)c3c4c(sc3n2)CCCC4)n1 (configuration not stated),"inconclusive [inhibitor, partial curve]",
COc1ccc(-c2c(C)oc3c(CN4CCCCC4C)c(O)ccc3c2=O)cc1OC (configuration not stated),,inactive: -5.58%
CCOc1cccc(C(=O)Nc2cccc(-c3nnc(-c4ccccc4)o3)c2)c1,"inconclusive [inhibitor, partial curve]",
Clc1ccccc1-c1nc(NCc2cccnc2)c2ccccc2n1,"inconclusive [inhibitor, single point]",
O=C(NCc1ccco1)Nc1ccccc1Cl,"inconclusive [inhibitor, single point]",
COc1ccc(C)cc1NCc1cccc(OC)c1OC,"inconclusive [inhibitor, partial curve]",
CN1CCN(c2ncnc3ccc(-c4ccccc4Cl)cc23)CC1,"inconclusive [inhibitor, single point]",
N#Cc1cccc(NC(=O)N2CC[C@@]3(CCCN(S(=O)(=O)c4ccccc4)C3)C2)c1,"inconclusive [inhibitor, partial curve]",
COc1ccccc1CC(=O)Nc1ccc(-c2nnc(-c3ccco3)o2)cc1,"inconclusive [inhibitor, full curve, poor fit]",
Cc1nc(N2CCN(C)CC2)[nH]c(=O)c1Cc1cccc2ccccc12,"inconclusive [inhibitor, partial curve]",
Cc1ccc(SCc2cc(=O)[nH]c(N3CCCCC3)n2)cc1,"inconclusive [inhibitor, single point]",
Cc1cc(C(=O)COc2nncc3ccccc23)c(C)n1C,"inconclusive [inhibitor, partial curve, poor fit]",
CCNc1ncc2nc(-c3cn(C)c4ccccc34)c(=O)n(-c3ccc(OC)cc3)c2n1,"inconclusive [inhibitor, full curve, poor fit]",

# Reference: PubChem BioAssay AID995 (National Center for Advancing Translational Sciences (NCATS), 2007)
